“And” between values parts separate entries of the source, which are not always exact repeats. Equal entries are not always repeated. In all, about 280,000 compounds went through this assay and about 1,100 (0.39%) were called active. Inconclusive results, whose numbers are uncertain, are shown with a selection of clear calls. Calls follow the shape of the dose curve; as a rule, active = well fitted inhibition curve with a large enough effect; inconclusive = small, poorly fitted or top-dose-only effect, or effect the other way; inactive = flat fitted curve, though single readings scatter. Potencies of inconclusive entries are doubtful fits and often do not repeat.
Molecular target: Microtubule-associated protein tau (Homo sapiens) (UniProt P10636)
Assay: qHTS for Inhibitors of Tau Fibril Formation, Fluorescence Polarization; also: nearly all actives have a fitted effect of over 55% in size
Details: K18 P301L tau heparin fibrillization, Alexa594 FP, 6 h; series mostly up to 57.7 µM; activity, negative = inhibition: at the top concentration
Procedure, shortened: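 Heparin (20 uM) drove fibril formation of recombinant tau K18 P301L, 15 uM unlabeled with 0.24 uM Alexa 594 label, for 6 hr at 37 C in 100 mM sodium acetate pH 7. Fluorescence polarization (555/632 nm) read 1 hr after 30 uM ThT.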
% is scaled to controls: 0 for no effect and ±100 for the full control effect; potency is read from the fitted curve at half-maximal effect; tags tell the direction and shape of the fitted curve.

Chain of UniProt P10636 (P10636 whole entry, looked up): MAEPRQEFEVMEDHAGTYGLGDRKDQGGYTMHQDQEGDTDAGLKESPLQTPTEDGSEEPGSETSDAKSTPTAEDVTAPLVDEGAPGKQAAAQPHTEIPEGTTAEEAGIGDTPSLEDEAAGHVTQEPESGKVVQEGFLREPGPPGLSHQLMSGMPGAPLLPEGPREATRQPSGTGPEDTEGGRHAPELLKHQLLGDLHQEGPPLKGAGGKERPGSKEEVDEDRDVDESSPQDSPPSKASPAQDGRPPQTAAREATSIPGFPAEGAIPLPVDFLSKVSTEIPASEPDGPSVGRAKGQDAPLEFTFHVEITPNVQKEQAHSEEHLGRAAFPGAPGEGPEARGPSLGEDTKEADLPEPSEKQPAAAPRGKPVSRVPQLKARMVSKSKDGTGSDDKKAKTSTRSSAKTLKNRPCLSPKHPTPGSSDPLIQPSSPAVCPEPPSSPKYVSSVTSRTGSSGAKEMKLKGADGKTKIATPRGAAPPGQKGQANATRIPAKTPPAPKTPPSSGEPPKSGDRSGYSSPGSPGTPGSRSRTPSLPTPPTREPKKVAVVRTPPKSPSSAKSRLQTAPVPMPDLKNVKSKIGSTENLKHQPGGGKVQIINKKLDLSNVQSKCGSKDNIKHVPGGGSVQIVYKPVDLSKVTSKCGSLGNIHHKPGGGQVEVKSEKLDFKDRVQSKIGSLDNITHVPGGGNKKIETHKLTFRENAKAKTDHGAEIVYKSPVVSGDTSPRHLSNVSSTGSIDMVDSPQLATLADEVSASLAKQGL

Compound	activity, negative = inhibition	Potency
CC(CNC(=O)c1ccc2c(c1)nc1n2CCCCC1)c1ccccc1 (stereo not given)	inactive: -2.86%	–
COC(=O)c1[nH]c2cc(OC)ccc2c1NC(=O)CN1CCN(c2cccc(C)c2)C(C)C1 (stereo not given)	–	inconclusive: 12.6 µM [activator, partial curve, poor fit]
CCNc1ccc(Br)cc(C(=O)/C=C/c2ccc(Cl)cc2)c1=O	–	inconclusive: 39.8 µM [inhibitor, single point]
Cc1cc2nc3c(=O)[nH]c(=O)nc-3n(CC(O)C(O)C(O)COP(=O)(O)O)c2cc1C (stereo not given)	–	inconclusive: 7.94 µM [inhibitor, single point]
CCOc1ccc(C2C(C#N)=C(N)SC(N)=C2C#N)c(OCC)c1	–	inconclusive: 44.7 µM [inhibitor, single point]
Cc1cc(O)c(C)c2c1CC[C@H]1[C@H](C)C(=O)O[C@H]21	inactive: 2.83%	–
Cc1sc(-n2cccc2)c(C(C)NC(=O)Nc2cccc(C(F)(F)F)c2)c1C (stereo not given)	–	inconclusive: 12.6 µM [inhibitor, partial curve]
CN(C)S(=O)(=O)N(CC(=O)Nc1ccc(C(F)(F)F)cc1)c1ccccc1	–	inconclusive: 1.78 µM [inhibitor, full curve, poor fit]
Cc1ccc(OCCSc2nc3ccc(NC(=O)c4cccs4)cc3s2)cc1	–	inconclusive: 5.01 µM [inhibitor, partial curve]
O=C1CC(C(=O)Nc2ccc(Br)cc2)S/C(=N\N=C\c2ccco2)N1 (stereo not given)	–	inconclusive: 44.7 µM [inhibitor, single point]
COc1ccc(CNC(=O)c2ccc3c(c2)N(Cc2cc(C)ccc2C)C(=O)CS3)cc1	inactive: -12.5%	–
CCOc1ccc(NC(=S)Nc2ccc(OCC)cc2)cc1	inactive: 10.5%	–
CCOc1cccc(C(=O)N(Cc2ccc(C)o2)C2CCS(=O)(=O)C2)c1 (stereo not given)	inactive: -7.96%	–
COc1cccc(CNC(=O)c2cc(-c3ccc(Cl)cc3)n[nH]2)c1	–	inconclusive: 35.5 µM [inhibitor, single point]
CC(=O)O[C@H]1C2=CO[C@H](C)[C@H]3[C@H]4C5=C([C@H](O)[C@H]6O[C@@H]6C5=O)[C@H](O[C@H]4C)[C@@]23C(=O)[C@H]2O[C@@H]21	–	inconclusive: 8.91 µM [inhibitor, single point]
CCC(CC)c1nn2c(=O)cc(COc3ccc(NC(=O)c4cccc(C)c4)cc3)nc2s1	inactive: -8.6%	–
Cc1ccc(C(=O)Nc2nc3ccc(S(C)(=O)=O)cc3s2)o1	–	inconclusive: 4.47 µM [inhibitor, single point]
O=C1C(SCCO)=C(SCCO)C(=O)c2ccccc21	–	active: 2.51 µM
CC[n+]1c(/C=C/C=C/N(C(C)=O)c2ccccc2)sc2ccccc21	–	inconclusive: 28.2 µM [inhibitor, single point]
Cn1c(=O)c(C(=O)COC(=O)c2cc(C(F)(F)F)nc3c(C(F)(F)F)cccc23)c(N)n(CC2CC2)c1=O	–	inconclusive: 3.55 µM [inhibitor, partial curve] and inconclusive: 11.2 µM [inhibitor, partial curve]
CCOc1ccc(NC(=O)c2cn(CC(C)C)c(=O)c3c2c2ccccc2n3C)cc1	–	inconclusive: 8.91 µM [inhibitor, single point]
C#CCOc1c(Br)cc(/C=N/O)cc1OCC	inactive: -11.6%	–

Compound	activity, negative = inhibition	Potency
O=C(COc1ccc(-c2ccccc2)cc1)N/N=C/c1cc(O)ccc1Br	–	inconclusive: 35.5 µM [inhibitor, partial curve]
C=CCc1ccccc1OCC(O)CN1CCN(Cc2ccc3c(c2)OCO3)CC1 (stereo not given)	–	inactive
CCN(c1ccccc1)S(=O)(=O)c1ccc(C(=O)Nc2nnc(COC)o2)cc1	–	inconclusive: 8.91 µM [inhibitor, partial curve, poor fit]
COc1ccc(NC(=O)Cn2c(=O)n(Cc3ccc(C(=O)NCc4ccccc4Cl)cc3)c(=O)c3ccccc32)cc1OC	–	inconclusive: 31.6 µM [inhibitor, single point]
CC(=O)Nc1ccc(OCCOc2ccc(/C=C3/C(=N)N4C=CSC4=NC3=O)cc2)cc1	–	inconclusive: 31.6 µM [inhibitor, single point]
COc1ccc(NC(=O)CSc2nc(-c3ccco3)cc(C(F)(F)F)n2)cc1	–	inconclusive: 10 µM [inhibitor, partial curve, poor fit]
COc1ccc(Cl)cc1NC(=O)CCC(=O)N1CCOc2ccccc21	–	inconclusive: 35.5 µM [activator, single point]
Cc1ccc(NC(=O)CN2C(=O)N/C(=C/c3ccc(C)o3)C2=O)cc1	–	inconclusive: 7.94 µM [inhibitor, full curve, poor fit]
CCCCOc1ccc2c(c1)C(=O)c1cc(O)ccc1-2	–	inconclusive: 39.8 µM [inhibitor, single point]
Cc1nnc2c(Nc3cccc(O)c3)nc3ccccc3n12	inactive: -2.73%	–
CCOC(=O)CNc1nnc(SCC(=O)OCC)[nH]c1=O	–	inconclusive: 39.8 µM [inhibitor, single point]
Cc1cc(-c2csc(N)n2)c(C)n1Cc1ccco1	inactive: -13.4%	–
O=C(NNc1ccc(Cl)cc1)c1sccc1Cl	–	inconclusive: 39.8 µM [inhibitor, single point]
Cc1cccc([C@H]2[C@@H]3C=CC(C)C[C@@H]3C(=O)N2Cc2ccccc2)c1 (stereo not given in full)	inactive: -2.82% [at 81.3 µM]	–
CCOc1ccc(/C=C/c2nc3ccccc3n2S(=O)(=O)c2ccc(Br)cc2)cc1	–	inconclusive: 31.6 µM [inhibitor, partial curve, poor fit]
COc1cccc(NC(=O)Cn2c(=O)n(-c3ccc(Cl)cc3)c(=O)c3sc4ccccc4c32)c1	–	inconclusive: 28.2 µM [inhibitor, partial curve]
CCOc1cc(NC(=S)NCC2CCCO2)c(OCC)cc1NC(=O)CC(C)C (stereo not given)	inactive: -2.5%	–
Cc1[nH]c2ccccc2c1/C=C(\C#N)C(=O)NCc1ccccc1	–	inconclusive: 39.8 µM [inhibitor, single point]
COc1ccccc1N1CCN(S(=O)(=O)c2c(C)sc3ncn(CC(=O)Nc4ccccc4F)c(=O)c23)CC1	inactive: -4.73%	–
CCc1ccc(-c2[nH]nc3nc(-c4ccc(OC)cc4)cc(C(=O)NCCc4ccc(OC)c(OC)c4)c23)cc1	–	inconclusive: 39.8 µM [inhibitor, single point]
COc1cccc(C(=O)Nc2ccc3c(c2)C(=O)c2ccccc2C3=O)c1	–	inconclusive: 7.94 µM [activator, partial curve]
O=C1/C(=C/c2ccco2)SC(=S)N1c1cccnc1	–	inconclusive: 35.5 µM [inhibitor, partial curve]

Compound	activity, negative = inhibition	Potency
CO[C@H]1COC(=O)C/C=C\[C@@H](C)[C@H](OC)COC(=O)CCC[C@@H]1C	inactive: 3.38% [at 11.6 µM]	–
Cc1c(C(=O)Nc2ccncc2)sc2nc(-c3ccc(F)cc3)cn12	–	inconclusive: 39.8 µM [inhibitor, single point]
COc1ccc(NC(=O)Cn2c(=O)n(CCc3ccccc3)c(=O)c3ccccc32)cc1	–	inconclusive: 17.8 µM [inhibitor, partial curve]
COC(=O)/C(=N\Nc1ccc(Cl)cc1)Sc1nnc(-c2ccc(OC)cc2)n1C	–	inconclusive: 0.178 µM [inhibitor, single point]
CC(C)CNC(=O)CC(=O)N/N=C/c1cccs1	–	inconclusive: 2.82 µM [activator, single point]
CN1CCC(OC(=O)COc2ccc(F)cc2)CC1	–	inconclusive: 7.08 µM [inhibitor, single point]
C=CCSc1nc(N)c(C(=O)Nc2ccccc2OC)cc1C(=O)Nc1ccccc1	–	inconclusive: 4.47 µM [inhibitor, partial curve]
CCOC(=O)/C=c1\s/c(=C\c2c(OC)ccc3ccccc23)c(=O)n1CC(=O)NCC1CCCO1 (stereo not given)	–	inconclusive: 10 µM [inhibitor, partial curve]
CCOC(=O)N/N=C/c1cn(Cc2ccc(Cl)cc2)c2ccccc12	inactive: 2.65%	–
CCOc1ccc(NC(=O)c2c(NC(=O)Cc3ccccc3)sc3c2CCC(C)C3)cc1 (stereo not given)	–	inconclusive: 22.4 µM [inhibitor, partial curve]
COc1ccc(OC)c(NC(=O)CN(C)S(=O)(=O)c2ccc3[nH]c4c(c3c2)CCCC4)c1	inactive: 7.09%	–
O=C(CSc1nnc(-c2cc3ccccc3cc2O)n1Cc1ccco1)c1ccc(F)cc1	inactive: -5.1%	–
Brc1ccc(-c2csc(-c3ccncc3)n2)cc1	inactive: 3.54%	–
C[C@@H]1OC(Nc2ccc(N=Nc3ccccc3)cc2)[C@H](O)[C@H](O)[C@H]1O (stereo not given in full)	–	inconclusive: 0.0631 µM [activator, full curve, poor fit]
O=C(CSc1nc2ccc(S(=O)(=O)N3CCOCC3)cc2[nH]1)N1CCOCC1	–	inconclusive: 28.2 µM [inhibitor, partial curve]
CN1C(=O)c2ccc(C(=O)NCc3ccccc3)cc2C1=O	inactive: -5.67%	–
CCOc1ccc(C(=O)NCC(c2ccc3c(c2)OCO3)N2CCN(c3ccccc3F)CC2)cc1 (stereo not given)	inactive: 7.95%	–
Cc1ccc(NC(=O)Cn2c(=O)n(Cc3ccco3)c(=O)c3ccc(C(=O)NC4CCCC4)cc32)c(C)c1	–	inconclusive: 22.4 µM [inhibitor, partial curve]
CC(=O)N(Cc1ccc(F)cc1)C1=C(NCCc2ccccc2)C(=O)c2ccccc2C1=O	–	inconclusive: 8.91 µM [activator, single point]
COC(=O)CCC(=O)Nc1ccc(NC(=O)CCC(=O)OC)cc1	inactive: -0.114%	–
Cc1ccc(SCc2cc(=O)[nH]c(/N=C(\N)Nc3ccccc3Sc3ccccc3)n2)cc1	–	inconclusive: 4.47 µM [inhibitor, full curve, poor fit]

From PubChem BioAssay AID1468 (National Center for Advancing Translational Sciences (NCATS), 2008)
